According to the supplement of paper PMC3334620:
The full ranking holds about 33,000 sequences; the median of “E-score (-0.5 to 0.5)” is about -0.012, and the highest 2% start at about 0.29. The list shows a part of the results.

The sequences below were run against T1, Ybr033w (UniProt P38073) (assay: PBM E-score (8-mer binding enrichment) (E-score (-0.5 to 0.5)); higher = stronger / more preferred TF binding; most listed sequences are background and not binding sites). Conditions: protein concentration: 200 nM; construct: GST-full length.
T1 sequence: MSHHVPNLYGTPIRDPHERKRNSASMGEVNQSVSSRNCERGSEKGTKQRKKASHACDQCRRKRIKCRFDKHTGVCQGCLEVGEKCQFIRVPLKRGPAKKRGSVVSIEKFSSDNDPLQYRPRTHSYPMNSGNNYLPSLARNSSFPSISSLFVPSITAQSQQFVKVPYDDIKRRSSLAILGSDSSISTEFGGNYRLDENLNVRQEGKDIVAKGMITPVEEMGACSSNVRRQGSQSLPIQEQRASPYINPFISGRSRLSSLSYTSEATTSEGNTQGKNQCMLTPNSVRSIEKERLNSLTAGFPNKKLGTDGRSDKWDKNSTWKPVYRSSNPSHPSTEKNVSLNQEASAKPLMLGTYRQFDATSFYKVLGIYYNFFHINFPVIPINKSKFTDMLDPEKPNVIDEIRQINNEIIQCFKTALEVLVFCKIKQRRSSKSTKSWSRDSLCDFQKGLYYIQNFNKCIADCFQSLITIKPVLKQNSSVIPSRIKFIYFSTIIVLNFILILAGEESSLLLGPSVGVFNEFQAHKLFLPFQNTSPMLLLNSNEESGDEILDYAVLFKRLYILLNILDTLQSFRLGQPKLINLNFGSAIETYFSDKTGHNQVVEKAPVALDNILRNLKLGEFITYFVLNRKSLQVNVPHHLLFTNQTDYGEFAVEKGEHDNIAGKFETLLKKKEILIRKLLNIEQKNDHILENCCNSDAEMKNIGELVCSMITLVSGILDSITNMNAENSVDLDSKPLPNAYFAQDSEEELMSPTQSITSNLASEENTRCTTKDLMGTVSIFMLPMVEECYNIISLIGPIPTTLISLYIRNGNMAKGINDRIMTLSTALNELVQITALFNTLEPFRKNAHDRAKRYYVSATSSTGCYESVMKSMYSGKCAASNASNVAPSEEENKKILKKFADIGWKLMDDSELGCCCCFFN
Procedure, shortened: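 E-scores (a modified Wilcoxon-Mann-Whitney statistic) were assigned by the Universal PBM Analysis Suite to every ungapped eight-base word pooled with its reverse complement. The input came from universal all-10-mer Agilent arrays made double-stranded by primer extension and probed with GST-tagged yeast transcription factors at about 100-200 nM. Fluorescent anti-GST detected bound protein, and masliner normalised the scans.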

Going from TACTTAGA to AAATTGGG, the “PBM E-score” value rises from 0.125 to 0.175.

First: AGAGGGCC
Second: ATTCTACA
The “PBM E-score” value of the first is lower: -0.287 for the first, 0.17 for the second.

First: CTAACGCC
Second: AGTGCACA
The “PBM E-score” value of the first is lower: -0.0983 for the first, -0.0358 for the second.

Compared with AATATGGC, AGCCTGTC is lower in “PBM E-score” value: -0.0217 for the first, -0.0235 for the second.

Compared with CAAAATGC, GCTATGTA is lower in “PBM E-score” value: 0.102 for the first, -0.106 for the second.

Compared with CCATGAGA, AGGGTTAT is higher in “PBM E-score” value: -0.086 for the first, 0.00086 for the second.

Going from GAAACCAA to ACGTGCTG, the “PBM E-score” value falls from 0.106 to -0.0106.

Going from AAGCGCGC to CCGAGTTC, the “PBM E-score” value rises from 0.0512 to 0.0991.

First: TCCGGGCA
Second: ATAGGGCC
The “PBM E-score” value of the first is higher: 0.0575 for the first, -0.198 for the second.

First: TCCTAGAA
Second: CGATACGC
The “PBM E-score” value of the first is lower: -0.113 for the first, -0.0077 for the second.

Compared with CCTCGATC, GAGGAGAC is lower in “PBM E-score” value: -0.114 for the first, -0.249 for the second.

Going from AGTGTTCA to CTGTGCCC, the “PBM E-score” value falls from 0.081 to -0.205.

Going from ACCCGTCC to CCTTTAGC, the “PBM E-score” value rises from -0.225 to -0.087.

First: CATACCGC
Second: GCCTCCAC
The “PBM E-score” value of the first is higher: -0.0495 for the first, -0.291 for the second.

Compared with AGCTCGTG, AAACGTTT is higher in “PBM E-score” value: -0.072 for the first, 0.0726 for the second.

Compared with CTGCACGA, ACCGATCC is lower in “PBM E-score” value: 0.0216 for the first, -0.185 for the second.

Compared with ACGCGCTG, CCACGGTA is higher in “PBM E-score” value: -0.167 for the first, -0.144 for the second.

Going from TGGGGGAA to GTCACCAA, the “PBM E-score” value rises from -0.172 to -0.16.

Compared with AATGGGGA, GACACAAC is higher in “PBM E-score” value: -0.192 for the first, -0.101 for the second.

Going from GCATATGA to AAACAGTA, the “PBM E-score” value rises from 0.094 to 0.191.

Going from CGAGCCTA to AATGGGCG, the “PBM E-score” value rises from -0.0771 to -0.0212.

First: AAGAGTTA
Second: CGTGCATC
The “PBM E-score” value of the first is higher: 0.126 for the first, -0.184 for the second.

Compared with AGTAAAAC, ACTGCCGC is lower in “PBM E-score” value: 0.0884 for the first, 0.0159 for the second.

First: ATCGTAAG
Second: CCCGCGAA
The “PBM E-score” value of the first is lower: -0.0318 for the first, -0.00032 for the second.

Compared with GAAGATCC, AACGTTTG is higher in “PBM E-score” value: -0.0624 for the first, 0.0394 for the second.

Compared with CAGCTAGA, GTGCTCTA is lower in “PBM E-score” value: -0.156 for the first, -0.198 for the second.

Going from AGATAACA to CATAGAAC, the “PBM E-score” value falls from 0.0908 to -0.134.

First: TCAGGCAA
Second: ATGCAGAC
The “PBM E-score” value of the first is higher: -0.116 for the first, -0.126 for the second.

First: CCCATGAA
Second: CGGAGCTC
The “PBM E-score” value of the first is higher: -0.00986 for the first, -0.308 for the second.

Compared with CTTCCAAA, GGACATAC is lower in “PBM E-score” value: 0.156 for the first, 0.00087 for the second.

First: ACTTAGAT
Second: CCTTTTAC
The “PBM E-score” value of the first is higher: 0.211 for the first, 0.00999 for the second.

First: AACAAATG
Second: CCGCTCGC
The “PBM E-score” value of the first is higher: 0.139 for the first, -0.0741 for the second.

Going from CGTTTGCA to CAATGCTA, the “PBM E-score” value rises from 0.00146 to 0.115.

First: CTGTCGAA
Second: AGGCCAAA
The “PBM E-score” value of the first is higher: 0.0437 for the first, -0.00819 for the second.

First: CAAGGAAC
Second: AAAGCAAG
The “PBM E-score” value of the first is lower: 0.0832 for the first, 0.188 for the second.

First: GCTTAAGA
Second: AAGATTCG
The “PBM E-score” value of the first is lower: -0.0053 for the first, 0.231 for the second.

Compared with AGTGATAA, AGCTAACG is lower in “PBM E-score” value: 0.0273 for the first, -0.122 for the second.

Going from AAGCGCTG to CTCAAGGA, the “PBM E-score” value falls from 0.0201 to -0.103.

First: AAGACCTC
Second: ACCCATAG
The “PBM E-score” value of the first is higher: -0.202 for the first, -0.315 for the second.

Compared with TCAGCCGA, CTGTTACA is higher in “PBM E-score” value: 0.0152 for the first, 0.0163 for the second.

Going from CCTCGCTA to GCAGGACA, the “PBM E-score” value rises from -0.151 to 0.025.

Going from AAATAAGA to ACCCGTTA, the “PBM E-score” value falls from 0.16 to 0.0456.

Going from ATATAAGA to CGCCACAC, the “PBM E-score” value falls from 0.25 to -0.0773.

Compared with ACCTCGTA, ATAAAACA is higher in “PBM E-score” value: 0.0833 for the first, 0.187 for the second.

First: CCATAGCA
Second: AGTCGGGA
The “PBM E-score” value of the first is higher: 0.029 for the first, -0.247 for the second.

Compared with AACCCGGC, GACTGCGC is lower in “PBM E-score” value: 0.0321 for the first, -0.14 for the second.

Compared with TAGGGGCA, CATACTCA is higher in “PBM E-score” value: -0.276 for the first, 0.116 for the second.

Compared with GCTCTTCA, CTTTAAAC is higher in “PBM E-score” value: -0.0939 for the first, 0.0871 for the second.

Compared with CGGATGAA, AGTCTGCA is lower in “PBM E-score” value: 0.371 for the first, -0.275 for the second.

Compared with CAGCAGCA, ATCATATG is higher in “PBM E-score” value: 0.0143 for the first, 0.19 for the second.

First: AAGTCTGG
Second: GACTCGCA
The “PBM E-score” value of the first is lower: -0.0694 for the first, -0.0199 for the second.

Compared with GATAACGA, ATCCATCG is lower in “PBM E-score” value: 0.171 for the first, 0.0546 for the second.

First: ATGTAGAG
Second: CAAAATTG
The “PBM E-score” value of the first is lower: -0.0059 for the first, 0.0527 for the second.

Going from CACAATGA to CCCTCTAG, the “PBM E-score” value falls from 0.0642 to -0.163.

First: CCGATACA
Second: CCCTCTGC
The “PBM E-score” value of the first is higher: 0.0311 for the first, -0.235 for the second.

Compared with ATGCTGCG, CTCAAACC is higher in “PBM E-score” value: -0.15 for the first, 0.0489 for the second.

First: AATGGCGG
Second: AATCGGTC
The “PBM E-score” value of the first is lower: -0.0429 for the first, 0.034 for the second.

Going from GTACAGAC to ACTAGTTG, the “PBM E-score” value rises from -0.1 to -0.071.

Going from CGAGGGAG to CCATCTTA, the “PBM E-score” value rises from -0.223 to -0.14.

First: CACAGTAG
Second: ACTAAGTA
The “PBM E-score” value of the first is lower: 0.0135 for the first, 0.0353 for the second.

First: AGGTATGC
Second: CCGGCCAC
The “PBM E-score” value of the first is higher: 0.127 for the first, -0.162 for the second.

First: AAGGGCGC
Second: CATCTACC
The “PBM E-score” value of the first is higher: 0.0645 for the first, 0.0235 for the second.

Compared with AACACGGA, ATAGTGCG is higher in “PBM E-score” value: 0.0405 for the first, 0.0631 for the second.

Going from CGGACTTA to GCAGGCGA, the “PBM E-score” value falls from -0.0464 to -0.332.

Going from GACAGGTC to TAAATAAA, the “PBM E-score” value rises from -0.38 to 0.301.

Going from CAGCGTTA to ATAGGCGA, the “PBM E-score” value rises from -0.123 to -0.0643.

Compared with GGCTGACC, CGTTAGTA is higher in “PBM E-score” value: -0.232 for the first, 0.171 for the second.

First: CGGTCTAC
Second: AACAATCG
The “PBM E-score” value of the first is lower: -0.0984 for the first, 0.0843 for the second.

First: GATAACCA
Second: TCGGAGAA
The “PBM E-score” value of the first is lower: 0.0836 for the first, 0.152 for the second.

Compared with CCTTAAGC, ACTGGGGC is lower in “PBM E-score” value: -0.178 for the first, -0.224 for the second.

First: CGACGAGC
Second: TCGAGCAA
The “PBM E-score” value of the first is lower: -0.193 for the first, 0.146 for the second.

Compared with AGGACATG, ACAGTAAC is higher in “PBM E-score” value: -0.0251 for the first, 0.199 for the second.

Going from CCCCTAGC to GGCACGCA, the “PBM E-score” value rises from -0.297 to -0.153.

Going from CACTGCTA to ACGCGGGG, the “PBM E-score” value falls from 0.0266 to -0.104.

Compared with CGTCCGAG, AACTAGTG is higher in “PBM E-score” value: -0.0798 for the first, 0.107 for the second.

First: AGACCTAG
Second: AGTCGGGG
The “PBM E-score” value of the first is higher: -0.0713 for the first, -0.194 for the second.

Going from CAATCCTA to TATGTCGA, the “PBM E-score” value rises from -0.0184 to 0.13.

First: CTCGTTAC
Second: AAATACGT
The “PBM E-score” value of the first is lower: -0.113 for the first, 0.163 for the second.

Compared with CTCTGCGA, CTTGTCTA is higher in “PBM E-score” value: -0.0389 for the first, 0.0137 for the second.

Compared with AACGAACG, CCGACCCC is lower in “PBM E-score” value: -0.0204 for the first, -0.42 for the second.

First: AAGGCTCC
Second: AGACGCTC
The “PBM E-score” value of the first is lower: -0.343 for the first, -0.261 for the second.

Compared with AGATCCCA, CTATCACC is lower in “PBM E-score” value: -0.01 for the first, -0.0949 for the second.

Going from CTTTACAA to CTTCTTGA, the “PBM E-score” value rises from 0.0948 to 0.158.

Compared with ACCAGAGA, CAGCTGGA is lower in “PBM E-score” value: 0.0781 for the first, 0.0374 for the second.

Going from ACTGGACG to GTTAACGA, the “PBM E-score” value rises from -0.221 to 0.167.

Compared with GGCGAATA, GCACTAAA is higher in “PBM E-score” value: -0.0889 for the first, 0.225 for the second.
